# The whole screen tested about 52,000 compounds, of which about 4,300 (8.3%) were called active. No stated cut-off is given here; in the data, active means survival mostly below about 52% (no sharp cut-off); inactive means mostly above about 56%. Some of the results follow.
# System: DeltatarO mutant
# Experiment: growth inhibition of S. aureus wild type versus tarO mutant, primary screen, teichoic acid synthesis inhibitors, RN4220, OD600 (AID 463173)
# Conditions: OD600, 18 h, stronger effect = lower value, screened at 18.75 µg/mL (by protocol)
row,Structure (SMILES),survival
1,O=C(O)C1CCC(N2C(=O)C3C4C=CC(C4)C3C2=O)CC1 (stereo not given),inactive: 105%
2,CCOc1ccc(NC(=O)c2oc3ccccc3c2NC(=O)Cc2ccc(OC)c(OC)c2)cc1,inactive: 71%
3,Cc1ccc(C)c(CN2C(=O)c3ccccc3Sc3ccc(C(=O)NCCCOC(C)C)cc32)c1,inactive: 89%
4,CCOC(=O)c1ccc(N2C(=O)c3n[nH]c(C)c3C2c2ccc(C(C)C)cc2)cc1 (stereo not given),inactive: 86%
5,O=C(CSc1n[nH]c(-c2ccccc2Cl)n1)N1CCN(c2ccc(F)cc2)CC1,inactive: 77%
6,O=C1CNC(=O)N1Cc1ccc(F)cc1,inactive: 108%
7,CC(C)c1nn2c(=O)cc(COC(=O)c3ccc(NC(=O)c4ccccc4Cl)cc3)nc2s1,inactive: 80%
8,Cc1cccc(NS(=O)(=O)c2nnc(NC(=O)C3CCCCC3)s2)c1,active: 34%
9,COc1cc2[nH]c(=O)n(Cc3ccc(C(=O)N4CCN(c5cccc(C)c5C)CC4)cc3)c(=O)c2cc1OC,inactive: 138%
10,CCN(c1ccccc1)C1SC(=O)N(c2ccccc2)C1=O (stereo not given),inactive: 70%
11,COc1ccc(CNC(=O)c2cc(Nc3ccc(OC)cc3OC)nc3ccccc23)cc1,inactive: 80%
12,Cc1ccc(-n2nc(CO)c(C(=O)NCCO)n2)cc1,inactive: 82%
13,COc1ccc(CCNC(=O)Cn2nnc(-c3cccc(C(F)(F)F)c3)n2)cc1OC,inactive: 95%
14,CC1CN(C)C(C)c2c1oc1ccc(N)cc21 (stereo not given),inactive: 98%
15,COc1ccc(CNC(=O)C(=O)NCC(c2cccnc2)N2CCN(c3ccccc3F)CC2)cc1 (stereo not given),inactive: 70%
16,COc1cc(C2C(=O)N(C3CCC(C)CC3)CC(=O)N2CCc2ccc(Cl)cc2)ccc1OC(C)C (stereo not given),inactive: 84%
17,Cc1ccc(NC(=O)CN(C)S(=O)(=O)c2cccc3nsnc23)c(C)c1,inactive: 88%
18,COc1ccc(-c2[nH]ncc2C(=O)NCc2ccccc2OC)cc1,inactive: 79%
19,Cc1ccc(Nc2cc(-c3ccccc3)nc(C)n2)cc1,active: 24%
20,Cc1cccc2cc(C(c3nnnn3Cc3ccccc3)N3CCN(C(=O)c4ccco4)CC3)c(=O)[nH]c12 (stereo not given),inactive: 105%
21,CC(=O)Nc1ccc(S(=O)(=O)Nc2ccc3c(c2)n(C)c(=O)n3C)c(C)c1,inactive: 89%
22,Cc1cc(C)n(-c2nc3cc(Cl)c(Cl)cc3nc2Nc2c(C)cccc2C)n1,inactive: 89%
23,CC(=O)Nc1ccccc1-c1nc2ccccc2n(C(C)C(=O)c2ccc(C)c(C)c2)c1=O (stereo not given),inactive: 104%

row,Structure (SMILES),survival
1,CCOc1ccc(CC(=O)NC2CC(=O)N(c3ccc4c(c3)OCCO4)C2)cc1 (stereo not given),inactive: 85%
2,CCN(c1ccccc1)S(=O)(=O)c1nnc(NC(=O)COc2ccccc2F)s1,active: 31%
3,Cc1cccc(CSCCNC(=O)CN(c2ccccc2)S(=O)(=O)N(C)C)c1,inactive: 123%
4,CC1(C)Cc2ccccc2-c2nnc(SCC(N)=O)n21,inactive: 76%
5,CCSC1=NC2(CCN(C(=O)NC3CCCCC3)CC2)N=C1c1ccc(C)c(C)c1,inactive: 78%
6,Cc1ccc(NC(=O)[C@H](Cc2ccccc2)N2Cc3ccccc3C2=O)cc1,inactive: 81%
7,Cc1noc(C)c1S(=O)(=O)NCCc1csc2nc(-c3ccc(F)cc3)nn12,inactive: 87%
8,CCOC(=O)c1c(NC(=O)c2cc3ccccc3c(=O)o2)sc2c1CCCC2,active: 45%
9,CCCN(CCC)CCNC(=O)c1cc(Sc2ccc(Cl)cc2)nc2ccccc12,inactive: 128%
10,COc1nc(Oc2ccc(=O)n(-c3ccccc3)n2)nc(N(C)C)n1,inactive: 53%
11,CCc1cccc(NC(=O)c2ccc3c(=O)n4nc(Nc5ccccc5OC)sc4nc3c2)c1,inactive: 74%
12,COc1ccc(C(=O)NN=C2CCCC2)cc1,inactive: 91%
13,COc1ccc(OC)c(NC(=O)CCc2c(C)nc3c(-c4ccccc4)c(C)nn3c2C)c1,inactive: 51%
14,Cc1ccc(Cn2c(=O)c3cccnc3n(Cc3ccc(F)cc3)c2=O)cc1,inactive: 92%
15,CCc1c(C)nc2cc(-c3ccccc3)[nH]n2c1=O,inactive: 73%
16,Cc1cccc(Nc2nc3ccccc3n3c(N)nnc23)c1,inactive: 95%
17,O=C(CSc1ncn[nH]1)NCCOc1ccccc1,inactive: 76%
18,Cc1cc2n(n1)CCCN2C(=O)Nc1cccc(C)c1C,inactive: 73%
19,CCOC(=O)c1c(NC(=O)/C=C/c2ccc(OC)cc2)sc2c1CCC(C)C2 (stereo not given),active: 23%
20,O=C(CSc1nc(=O)[nH]c2c1CCCC2)NCc1ccc(Cl)cc1,inactive: 99%
21,Cc1ccccc1C(=O)Nc1sc2c(c1C(=O)N1CCC(C)CC1)CCCC2,inactive: 58%
22,CCN(CCCNC(=O)c1cc2c(=O)[nH]c3ccc(C)cc3c2s1)Cc1ccccc1,inactive: 56%
23,CCc1ccc2oc(C(=O)Nc3nc(-c4ccccc4)ns3)c(C)c2c1,inactive: 53%

row,Structure (SMILES),survival
1,Cc1cccc(CNC(=O)c2ccc(Cn3c(SCc4ccccc4)nc4cccnc43)cc2)c1,inactive: 92%
2,Cc1c(C(=O)N(C)C)sc2c1c(=O)n(-c1ccc(F)cc1)c(=O)n2CC(=O)N(C)c1ccccc1,inactive: 73%
3,COc1ccccc1CNC(=O)CCC1N=C2c3ccccc3N=C(SCC(=O)NCCc3ccccc3)N2C1=O (stereo not given),inactive: 131%
4,Cc1ccc(OC(C)C(=O)NCC2(N3CCOCC3)CCCCC2)cc1C (stereo not given),inactive: 57%
5,Cc1cc2oc(C(=O)Nc3ccc(S(=O)(=O)Nc4onc(C)c4C)cc3)cc(=O)c2cc1C,inactive: 49%
6,Cc1ccc(C)c(NC(=O)Cn2c(=O)oc3cc(S(=O)(=O)NCc4ccccc4)ccc32)c1,inactive: 74%
7,CCOc1ccc(-n2c(SC(C)C(=O)OC)nc3c([nH]c4ccccc43)c2=O)cc1 (stereo not given),active: 0%
8,CCOc1ccc(NC(=O)CN2CCN(CC(=O)Nc3ccc(OC)cc3)CC2)cc1,inactive: 102%
9,O=C(NN=C1C2CC3CC(C2)CC1C3)c1ccncc1,inactive: 97%
10,COc1ccccc1/C=C/c1nc(C#N)c(N2CCN(c3ccccc3)CC2)o1,inactive: 94%
11,CN(C(=O)CSc1nc2ccc(NC(=O)COc3ccccc3Cl)cc2s1)c1ccccc1,inactive: 59%
12,COc1cccc(CNC(=O)CCCn2c(=O)c3cccn3c3cccnc32)c1OC,inactive: 103%
13,CCCCn1nc(NC(=O)c2cccc(Cl)c2)c2cc3ccc(C)cc3nc21,inactive: 69%
14,CC(=O)Nc1ccc(NS(=O)(=O)c2cc3c4c(c2)CC(=O)N4CCC3)cc1,inactive: 118%
15,COc1cc(C(=O)NCCS(=O)(=O)N2CCN(c3ccccc3)CC2)cc(OC)c1OC,inactive: 92%
16,COc1ccc(-c2cc3nc(C)c(CCC(=O)N4CCN(c5cc(C)ccc5C)CC4)c(C)n3n2)c(OC)c1,inactive: 69%
17,Cn1cc(S(=O)(=O)c2ccc(Cl)cc2)c(=O)c2cc(F)c(N3CCOCC3)cc21,inactive: 77%
18,COC(=O)c1cccc(CN2C(=O)SC(Nc3ccc(Br)cc3)C2=O)c1 (stereo not given),active: 23%
19,Cc1ccc(NC(=O)CSc2nc3ccc(NC(=O)c4ccco4)cc3s2)c(C)c1,inactive: 63%
20,COc1ccc(-c2cc(C(F)(F)F)nc(NCCc3ccccc3)n2)cc1,active: 1%
21,COC(=O)c1c(SCC(=O)Nc2cc(F)ccc2F)[nH]c2ccc(C)cc2c1=O,inactive: 116%
22,O=C(NCCc1ccccc1)c1cc2sccc2n1Cc1ccc(F)cc1,inactive: 72%
23,Cc1c(-c2ccc(Cl)cc2)c(=O)oc2c(CN3CCOCC3)c(O)ccc12,inactive: 82%

row,Structure (SMILES),survival
1,O=c1nc2cc3[nH]c4c(=O)c5ccccc5c4[nH]c3cc2n1,inactive: 82%
2,CC(=O)Oc1ccc2oc(=O)sc2c1,inactive: 79%
3,Cn1cc(CCC(=O)O)c2ccccc21,inactive: 99%
4,CCCCOc1ccc(C(=O)Nc2onc3c2CCCC3)cc1,active: 49%
5,COC(=O)C1CCN(C(c2ccccc2Cl)c2sc3nc(-c4ccco4)nn3c2O)CC1 (stereo not given),inactive: 99%
6,CCOC(=O)CN1C(C(=O)c2ccccc2)=C(OC(=O)c2ccccc2)c2ccccc2S1(=O)=O,inactive: 56%
7,Cc1cc(C)cc(NC(=O)Nc2cccs2)c1,active: 26%
8,COCCNC(=O)CSc1nnc(NC(=O)Nc2ccc(C)cc2)s1,inactive: 81%
9,CCc1ccc(-n2c(N3CCN(c4cccc(C)c4C)CC3)nc3ccccc3c2=O)cc1,inactive: 84%
10,O=C(NC1CCCCC1)C(c1ccco1)N(C(=O)C1COc2ccccc2O1)c1cccc(F)c1 (stereo not given),inactive: 74%
11,Cc1ccc(Nc2nc(N)nc(N)c2S(=O)(=O)c2ccccc2)cc1,inactive: 66%
12,Cc1nc2ccn(Cc3cccnc3)c(=O)c2cc1C(=O)N1CCN(c2ccccc2)CC1,inactive: 105%
13,CC(C)N1CC=C2C(C1)C(c1ccccc1Cl)C(C#N)=C(N)C2(C#N)C#N (stereo not given),inactive: 95%
14,Cc1ccc(C)c(NC(=O)Cn2cnc3nc4c(cc3c2=O)CCCC4)c1,inactive: 89%
15,COc1ccccc1N1CCN(C(=O)C2CCCN(S(=O)(=O)c3ccc4c(c3)oc(=O)n4C)C2)CC1 (stereo not given),inactive: 83%
16,CCOC(=O)c1cccc(NC(=O)c2ccc3snnc3c2)c1,inactive: 52%
17,Cc1ccc(NC(=O)CC2Sc3ccccc3NC2=O)c(Br)c1 (stereo not given),inactive: 132%
18,O=C(NCCS(=O)(=O)N1CCN(c2cccc(Cl)c2)CC1)c1cc(=O)c2ccccc2o1,inactive: 80%
19,CC(Cc1ccccc1)N=C1NS(=O)(=O)c2ccccc21 (stereo not given),inactive: 81%
20,CCOC(=O)c1cc(NC(=O)c2ccc(OC)cc2)c(=O)n2c1oc1ccc(Cl)cc12,active: 46%
21,CCn1c(CNC(=O)C23CC4CC(CC(C4)C2)C3)nnc1SCC(=O)Nc1ccc(F)cc1,inactive: 71%

# — PubChem BioAssay AID463173 (ICCB-Longwood Screening Facility, Harvard Medical School, 2010)
